Laboratory results published in PubChem BioAssay AID686979 (National Center for Advancing Translational Sciences (NCATS), 2013).
Where “and” joins values, the source holds several entries; their conditions need not be identical. Equal values may be shown once. About 50,000 (12%) of roughly 420,000 compounds were called active. Inconclusive means that the source gave no clear call. Such entries were picked first, then a sample of the others. The call rests on the fitted dose curve; in most records, active means well fitted inhibition curve with a large enough effect; inconclusive means small, poorly fitted or top-dose-only effect; inactive means flat fitted curve, though single readings scatter. A potency beside an inconclusive call is a rough fit, not a confirmed value.

Assay: qHTS for Inhibitors of human tyrosyl-DNA phosphodiesterase 1 (TDP1): qHTS in cells in presence of CPT; further: nearly all actives have a fitted effect of over 55% in size
Settings: chicken DT40 Tdp1-/-;hTDP1 cells + 20 nM CPT, ATP luminescence, 48 h; activity change, negative = growth inhibition: at 46.2 µM (top of the series)
Method in brief: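 Chicken DT40 Tdp1-/- cells stably complemented with human TDP1 were seeded at 400 cells/well in medium containing 20 nM camptothecin, exposed to pin-transferred compounds, and grown at 37 °C for at least 48 hr. Viability was read as ATP luminescence.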
On the % scale 0 is the no-effect control and ±100 the full control effect; potency means the concentration at half of the fitted maximal effect; tags describe the fitted curve by direction and shape.

Structure (SMILES) | Potency | activity change, negative = growth inhibition
Nc1c(C(=O)NCc2ccc3c(c2)OCO3)c2nc3ccccc3nc2n1CCCN1CCOCC1 | active: 23.1 µM | 
CC(=O)N1CCc2cc(S(=O)(=O)NCCC(=O)Nc3cc(C)cc(C)c3)ccc21 | inactive | 
CCCN1CCN(C(c2cc3cc(OCC)ccc3[nH]c2=O)c2nnnn2C2CCCCC2)CC1 (stereo unspecified) | inconclusive: 23.1 µM [inhibitor, single point] | 
COCC(C)N=C1SCCN1Cc1ccccc1 (stereo unspecified) | inactive | 
Fc1ccc(CSc2ccc(-c3ccc4c(c3)OCO4)nn2)cc1 |  | inconclusive: -30.3% [inhibitor]
COc1ccc2c(Sc3ccccc3)c(C(=O)NCc3ccc(OC(C)C)cc3)[nH]c2c1 | inconclusive: 18.4 µM [inhibitor, single point] | 
c1ccc2c(OCCCCN3CCCC3)cccc2c1 | inconclusive: 18.4 µM [inhibitor, single point] | 
CCCc1nc(SCC(=O)NC2CCCC2)c2ccccc2n1 | inconclusive: 23.1 µM [inhibitor, single point] | 
CC(C)(C)c1ccc(NC(=O)c2ccccc2)c([N+](=O)[O-])c1 | inactive | 
CC1CCC2(CC1)NC(=O)c1ccccc1O2 (stereo unspecified) | inconclusive: 20.6 µM [inhibitor, single point] | 
CCOC(=O)C1(Cc2ccccc2)CCCN(C(=O)c2ccc(-n3ccnc3)cc2)C1 (stereo unspecified) | inconclusive: 29.1 µM [inhibitor, single point] | 
COCCn1c(C)cc(C2=NNC(=NC3CC3)SC2)c1C | inconclusive: 14.6 µM [inhibitor, single point] | 
Cc1cccc(-c2cc3nc(C)c(C)c(NCCCn4ccnc4)n3n2)c1 | inconclusive: 29.1 µM [inhibitor, single point] | 
C/C(=N/OC(=O)C1CC12CCC2)c1ccc(Br)cc1 (stereo unspecified) | inactive | 
COc1cccc(CN2CCC2(C)C(=O)Nc2cnc3ccccc3c2)c1F (stereo unspecified) | inconclusive: 23.1 µM [inhibitor, single point] | 
COC(=O)c1ccc(Cn2c(C)c(C(=O)NCc3cccc(C(F)(F)F)c3)sc2=O)o1 | inconclusive: 29.1 µM [inhibitor, single point] | 
COc1ccc(Cl)cc1NC(=O)C/C(C)=N/NC(=O)Cc1ccccc1 | inactive | 
Cc1cccc(-c2nnc3n(CCc4ccccc4)c(=O)c4ccccc4n23)c1 | inconclusive: 4.61 µM [inhibitor, single point] | 
Fc1ccccc1-c1n[nH]c(=S)n1Cc1ccccc1 | inactive | 
O=C(O)CCn1nnc2ccccc21 | inactive | 
CCOc1ccc(-n2c(SCC(=O)NCc3ccco3)nc3c([nH]c4ccccc43)c2=O)cc1 | inconclusive: 25.9 µM [inhibitor, single point] | 
Cc1ccc(S(=O)(=O)Nc2ccc(F)c(F)c2O)cc1 | inactive | 
Cc1ccccc1NC(=O)n1ncc2cc(Cl)ccc21 | inactive | 
C/C=C/c1ccc(OCCOc2cc(C=O)ccc2OC)c(OC)c1 | inconclusive: 18.4 µM [inhibitor, single point] | 

Structure (SMILES) | Potency | activity change, negative = growth inhibition
O=C(O)c1ccc(Nc2c3ccccc3nc3ccccc23)cc1 | active: 1.3 µM | 
Clc1ccc(-c2nnc(-c3ccccc3)c(N3CCSCC3)n2)cc1 | active: 20.6 µM | 
O=C(Cc1ccc(Cl)cc1)c1c[nH]c(C(=O)NCc2cccnc2)c1 | inactive | 
COc1ccccc1-c1nnc(SCC(=O)NC2CCS(=O)(=O)C2)n1N (stereo unspecified) | inactive | 
CCN1CCN(c2ccc(S(=O)(=O)N3CCCCC3)cc2NC(=O)C(C)Oc2ccc(F)cc2)CC1 (stereo unspecified) | active: 18.4 µM | 
O=C1CC(N2CCOCC2)=NN1c1ccc([N+](=O)[O-])cc1 | inconclusive: 29.1 µM [inhibitor, single point] | 
Cc1cc(C(=O)CN2C(=O)CCC2=O)c(C)n1Cc1ccccc1 | inconclusive: 16.4 µM [inhibitor, partial curve] | 
CC1=CC(C)(C)N(C(=O)CSc2nnc(-c3ccc(C)cc3)o2)c2ccc(C)cc21 | inconclusive: 29.1 µM [inhibitor, partial curve, poor fit] | 
COc1cc(/C=C2\SC(=S)N(CCCCC(=O)O)C2=O)ccc1OS(=O)(=O)c1ccc(C)cc1 | inconclusive: 29.1 µM [inhibitor, single point] | 
CCCCc1nc2sc3c(c2c(=O)[nH]1)CC(C)(C)OC3 | inactive | 
Cc1ccc(C)c(NC(=O)N2CCN(C)c3ncccc32)c1 | inconclusive: 8.2 µM [inhibitor, partial curve] | 
CN(CC(=O)Nc1ccc(Cl)c(C(F)(F)F)c1)C(=O)Cn1cc([N+](=O)[O-])ccc1=O |  | inconclusive: -31.9% [inhibitor]
OC[C@@H]1CN(Cc2cccc(C(F)(F)F)c2)C[C@H](n2cnc3c(NC4CC4)ncnc32)O1 | inconclusive: 29.1 µM [inhibitor, single point] | 
Cc1ccc(-n2c3nc(=O)[nH]c(=O)c-3cc3c(Cl)cccc32)cc1 | active: 1.46 µM | 
COC(=O)C1CCCCN1C(=O)c1cccc(OC2CCN(C(=O)C3CC3)CC2)c1 (stereo unspecified) | inactive | 
CC(=O)c1cccc(NS(=O)(=O)c2ccc(N/C=C\C(=O)c3ccc(C)cc3)cc2)c1 | inconclusive: 4.11 µM [inhibitor, full curve] | 
CC(C)C(=O)Nc1ccc(C(=O)NNC(=S)NC(=O)c2cccs2)cc1 | inconclusive: 25.9 µM [inhibitor, single point] | 
CCCCn1c(N)c(N(CCOC)C(=O)c2sc3cc(F)ccc3c2Cl)c(=O)[nH]c1=O | inactive | 
CN(Cc1ccc2nonc2c1)Cc1nc(CC2CC2)no1 | inactive | 
CCOc1ccc(CNC(=O)c2ccc(-c3nc(CSc4ccc(C)cc4)c(C)o3)cc2)cc1 | inconclusive: 6.51 µM [inhibitor, single point] | 
CCOC(=O)CSc1c(-c2ccc(Cl)cc2)[nH]c2ccccc12 | inconclusive: 29.1 µM [inhibitor, single point] | 
Cc1cccc(CN2CCN(C3CN(Cc4cn(Cc5ccccc5F)nn4)S(=O)(=O)C3)CC2)c1 (stereo unspecified) | inconclusive: 16.4 µM [inhibitor, single point] | 
C=CCOc1ccc(/C=N/NC(=O)CC(=O)NC2CCCCC2)cc1 | inactive | 
Cc1noc(C)c1CSCC(=O)Nc1nc2c(F)cc(F)cc2s1 | inconclusive: 29.1 µM [inhibitor, single point] | 

Structure (SMILES) | Potency | activity change, negative = growth inhibition
Cc1ccc(-c2n[nH]c(=S)n2C)cc1 | active: 25.9 µM | 
C=C(c1ccc(OC)cc1)c1ccc(OC)cc1 | inconclusive: 25.9 µM [inhibitor, single point] | 
CC(=O)c1ccc(Nc2nc(C(N)CCc3ccccc3)cs2)cc1 (stereo unspecified) | inconclusive: 25.9 µM [inhibitor, single point] | 
CCOc1ccc(NC(=O)c2c(NC(=O)Cc3ccccc3)sc3c2CCCC3)cc1 | inconclusive: 20.6 µM [inhibitor, partial curve] | 
CCN(Cc1ccccc1)C(=O)Cn1c(=O)n(-c2ccc(OC)cc2OC)c(=O)c2c(C)c(C)sc21 | inconclusive: 20.6 µM [inhibitor, single point] and inconclusive: 20.6 µM [inhibitor, partial curve, poor fit] | 
COc1ccc(C(=O)Nc2ccc(OCC(F)(F)C(F)F)c(C(F)(F)F)c2)cc1OC | active: 11.2 µM | 
Cc1ccc(C(=O)OCCc2c(C)[nH]n(-c3ccccc3)c2=O)cc1 | inactive | 
CCCCOc1ccc(C(C)NC(=O)c2cccc(Nc3nc4ccccc4n4nnnc34)c2)cc1 (stereo unspecified) | active: 5.17 µM | 
CCOc1ccc(CCNC(=O)CSc2n[nH]c(-c3ccccc3)n2)cc1OCC | inconclusive: 16.4 µM [inhibitor, single point] | 
O=C(CCC1CCCN(C(=O)C2=CCCC2)C1)N1CCN(c2ccccn2)CC1 (stereo unspecified) | inactive | 
COc1ccccc1CNc1nc(-c2ccc(C(=O)N(C)C)cc2)nc2ccccc12 | inconclusive: 29.1 µM [inhibitor, single point] | 
Cc1c(CC(=O)N2CCCCC2)c(=O)oc2c(C)c3occ(C(C)(C)C)c3cc12 | inconclusive: 29.1 µM [inhibitor, single point] | 
O=C(c1cccn2c(=O)c3cc(Cl)ccc3nc12)N1CCN(Cc2ccc3c(c2)OCO3)CC1 | inconclusive: 25.9 µM [inhibitor, single point] | 
COc1cc(NC(=O)C2CCCCN2)ccc1OCC(C)C (stereo unspecified) | inconclusive: 29.1 µM [inhibitor, single point] | 
CCOc1cc(C(=S)N2CCOCC2)ccc1OC(=O)/C=C/c1ccc(OC)c(OC)c1 | inactive | 
Cc1ccc(S(=O)(=O)N2CCCCCC2)cc1C(=O)NCc1ccccn1 | inactive | 
COc1cccc(NS(=O)(=O)c2cc(C)sc2C)c1 | inconclusive: 29.1 µM [inhibitor, single point] | 
O=CN1Cc2[nH]c3ccccc3c2N(c2ccc(Cl)cc2)C1=O | inconclusive: 0.103 µM [inhibitor, full curve, poor fit] | 
COc1cccc(OC)c1NC(=O)CN(C)S(=O)(=O)c1ccc2c(c1)OCCO2 | inactive | 
Cc1cc(C)cc(OCC(=O)Nc2ccc(N3CCCCC3)cc2)c1 |  | inconclusive: -30.5% [inhibitor]
O=c1n(Cc2cccc(F)c2)c2ccccc2c2nc(-c3ccccc3)nn12 | inconclusive: 29.1 µM [inhibitor, single point] | 
CCS(=O)(=O)C1=NN2C(=N)/C(=C\c3ccc(OCCOc4cccc(OC)c4)c(OC)c3)C(=O)N=C2S1 | inactive | 
CCOC(=O)c1c(S(=O)(=O)NCC(=O)N2CCN(c3ccc(F)cc3)CC2)c(C)n(C)c1C | inactive | 
